# Measured values taken from PubChem BioAssay (NCATS).
# This list was built around the results that the source calls inconclusive (neither active nor inactive); the mix of calls is not that of the screen. Potencies of inconclusive entries are left out as doubtful fits. Calls of active or inactive are those of the source. Calls come from the whole dose curve; as a rule, active = well fitted curve in the direction sought with a large enough effect; inconclusive = small, poorly fitted or top-dose-only effect, or another doubt; inactive = no such curve, though single readings can be large; an effect the other way counts as inactive or inconclusive.
# Legend:
# [1] = qHTS to identify inhibitors of the type 1 interferon - major histocompatibility complex class I in skeletal muscle: primary screen against the NCATS LOPAC collection (AID 1347405); details: iHSKM muscle cells, IFN-b-induced MHC-I HiBiT luminescence, 24 h; series mostly up to 45.9 µM;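 note: human myoblasts with HiBiT tag on endogenous HLA-B stimulated by IFN-beta; lytic HiBiT luminescence reporting HLA-B protein level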
# How it was run: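 First, engineered myoblasts carrying HLA-B-HiBiT were seeded in medium lacking dexamethasone with 4 ng/ml IFN-beta. After 1 hr, compounds were pinned in (top 46 uM final, 7 points). After 24 hrs at 37 C, luminescence was measured following 10 min lysis.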
# [2] = qHTS to identify inhibitors of the type 1 interferon - major histocompatibility complex class I in skeletal muscle: primary screen against the NCATS Pharmaceutical Collection (AID 1347407);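 note: luminescence of HiBiT knocked into endogenous HLA-B as interferon-induced MHC class I level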
# How it was run: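 A qHTS format is used: 8-point, 1:5 compound series with 46 uM top final concentration, applied alongside 4 ng/ml IFN-beta to HLA-B*08:01-HiBiT knock-in myoblasts. Luminescence is measured after 24 h treatment.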
# [3] = Primary qHTS for inhibitors of La Crosse Virus (LACV) - induced cell death in SH-SY5Y cells (AID 1508616)
# How it was run: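 SH-SY5Y, 6000 cells/well; cpd via pin tool in DMSO; LACV 0.01 MOI; 6 d 37C 5% CO2; ATPLite, 5 min RT; luminescence normalized to ±virus DMSO controls.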
# [4] = target: Protein phosphatase 1D (Homo sapiens) (UniProt O15297); assay: Rhodamine-PBP qHTS Assay for Modulators of WT P53-Induced Phosphatase 1 (WIP1) (AID 1347425)
# How it was run: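 WIP1 (5 nM final) was preincubated with compound for 1 hour at room temperature. It then dephosphorylated 10 uM VEPPL-pS-QETFS peptide in Tris-HCl pH 7.5 with 30 mM MgCl2. Released Pi was detected by 10 uM Rh-PBP fluorescence (ex 525/em 598 nm) read at 1-min intervals for 11 min, as delta f1 - f0.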
# [5] = target: Protein phosphatase 1D (Homo sapiens) (UniProt O15297); assay: RapidFire Mass Spectrometry qHTS Assay for Modulators of WT P53-Induced Phosphatase 1 (WIP1) (AID 1347424)
# How it was run: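 RapidFire MS readout of dephosphorylated VEPPL-S-QETFS product, with 1 uM isotope-labelled peptide standard. Reaction: 10 nM WIP1, 2 uM phosphopeptide substrate, 5 min, room temperature, after 1 h compound preincubation; stopped with 0.5% formic acid.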
# Potency is the fitted concentration of half-maximal effect; tags give direction and shape of the fitted curve.
# Sequence of UniProt O15297 (O15297 whole entry, looked up): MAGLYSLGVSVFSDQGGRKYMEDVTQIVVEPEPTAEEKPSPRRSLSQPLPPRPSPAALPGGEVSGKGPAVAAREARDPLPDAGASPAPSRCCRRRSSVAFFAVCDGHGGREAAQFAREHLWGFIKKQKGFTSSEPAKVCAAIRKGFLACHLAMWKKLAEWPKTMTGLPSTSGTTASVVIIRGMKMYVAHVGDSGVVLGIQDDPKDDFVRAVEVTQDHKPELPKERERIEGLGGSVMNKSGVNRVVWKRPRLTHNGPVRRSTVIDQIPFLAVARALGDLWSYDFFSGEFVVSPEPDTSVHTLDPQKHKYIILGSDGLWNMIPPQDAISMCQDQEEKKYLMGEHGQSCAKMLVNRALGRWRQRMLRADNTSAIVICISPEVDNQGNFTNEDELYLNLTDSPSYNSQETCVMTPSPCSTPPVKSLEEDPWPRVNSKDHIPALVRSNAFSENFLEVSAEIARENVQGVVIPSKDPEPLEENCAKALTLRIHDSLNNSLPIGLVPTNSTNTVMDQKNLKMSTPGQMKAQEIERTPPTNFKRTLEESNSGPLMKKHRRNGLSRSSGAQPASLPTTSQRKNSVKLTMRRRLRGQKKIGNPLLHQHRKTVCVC
smiles,measurement,setting,value
CC#C[C@]1(O)CC[C@H]2[C@@H]3CCC4=CC(=O)CCC4=C3[C@@H](c3ccc(N(C)C)cc3)C[C@@]21C,Potency,[1],"inconclusive [inhibitor, single point]"
CN1CCN(CCCN2c3ccccc3Sc3ccc(S(=O)(=O)N(C)C)cc32)CC1,Potency,[2],inactive
CCN(CC)CCNc1ccc(CO)c2sc3ccccc3c(=O)c12,Potency,[2],"inconclusive [inhibitor, partial curve, poor fit]"
CNCCC=C1c2ccccc2CCc2ccccc21,Potency,[1],"inconclusive [inhibitor, single point]"
same,Potency,[3],"inconclusive [inhibitor, partial curve]"
Cc1c(C(C)C)c(=O)n(-c2ccccc2)n1C,Potency,[2],inactive
NC(=Nc1ccccc1)Nc1ccccc1,Potency,[2],"inconclusive [inhibitor, partial curve, poor fit]"
C[C@]12CCC(=O)C=C1CC[C@H]1[C@@H]3CC[C@](O)(C(=O)CO)[C@@]3(C)C[C@H](O)[C@@]12F,Potency,[2],"inconclusive [inhibitor, full curve]"
CN1CCN(C(=O)C2CCCCC2)CC1,Potency,[2],inactive
CCN(CC)C(C)CN1c2ccccc2Sc2ccccc21 (stereo unspecified),Potency,[2],inactive
OCCN1C[C@H](O)[C@@H](O)[C@H](O)[C@H]1CO,Potency,[2],inactive
OCCN1CCN(CCCN2c3ccccc3Sc3ccc(Cl)cc32)CC1,Potency,[1],"inconclusive [inhibitor, partial curve, poor fit]"
same,Potency,[4],inactive
same,Potency,[3],"inconclusive [inhibitor, partial curve, poor fit]"
CC(CN(C)C)C(C)(O)Cc1ccc(Cl)cc1 (stereo unspecified),Potency,[2],inactive
COc1ccc(OC)c(C(O)CNC(=O)CN)c1 (stereo unspecified),Potency,[2],inactive
C[C@]12C=CC(=O)C=C1[C@@H](F)C[C@@H]1[C@@H]2[C@@H](O)C[C@@]2(C)[C@H]1CC[C@]2(O)C(=O)CO,Potency,[2],"inconclusive [inhibitor, full curve]"
CC(=O)OCC(=O)[C@@]12N=C(C)O[C@@H]1C[C@H]1[C@@H]3CCC4=CC(=O)C=C[C@]4(C)[C@H]3[C@@H](O)C[C@@]12C,Potency,[2],"inconclusive [inhibitor, full curve]"
C[C@@H]1C[C@H]2[C@@H]3CCC4=CC(=O)C=C[C@]4(C)[C@@]3(F)[C@@H](O)C[C@]2(C)[C@H]1C(=O)CO,Potency,[2],inactive
Oc1ccc(Cl)cc1Sc1cc(Cl)ccc1O,Potency,[2],"inconclusive [inhibitor, single point]"
same,Potency,[5],active: 31.6 µM
same,Potency,[4],"inconclusive [inhibitor, partial curve, poor fit]"
C1CCC(C(CC2CCCCN2)C2CCCCC2)CC1 (stereo unspecified),Potency,[2],"inconclusive [inhibitor, single point]"
Cc1c(N(C)CS(=O)(=O)O)c(=O)n(-c2ccccc2)n1C,Potency,[2],inactive
CC(=O)c1ccc2c(c1)N(CCCN1CCC(CCO)CC1)c1ccccc1S2,Potency,[2],inactive
CC(=O)OCC(=O)[C@@]1(OC(C)=O)[C@@H](C)C[C@H]2[C@@H]3C[C@H](F)C4=CC(=O)C=C[C@]4(C)[C@@]3(F)[C@@H](O)C[C@@]21C,Potency,[2],"inconclusive [inhibitor, full curve]"
CN(C)CCCOc1nn(Cc2ccccc2)c2ccccc12,Potency,[2],inactive
C[n+]1c2cc(N)ccc2cc2ccc(N)cc21 (tested in a mixture with another compound),Potency,[2],"inconclusive [inhibitor, single point]"
COc1ccc(CCN2CCC(Nc3nc4ccccc4n3Cc3ccc(F)cc3)CC2)cc1,Potency,[2],"inconclusive [inhibitor, single point]"
O[C@@H](CNC[C@H](O)[C@H]1CCc2cc(F)ccc2O1)[C@@H]1CCc2cc(F)ccc2O1,Potency,[2],active: 26.4 µM
NC(N)=NN=C(/C=C/c1ccc([N+](=O)[O-])o1)/C=C/c1ccc([N+](=O)[O-])o1,Potency,[2],"inconclusive [inhibitor, single point]"
same,Potency,[5],"inconclusive [inhibitor, partial curve, poor fit]"
same,Potency,[4],"inconclusive [inhibitor, partial curve, poor fit]"
CC(C)=CCC1C(=O)N(c2ccccc2)N(c2ccccc2)C1=O,Potency,[2],active: 18.7 µM
same,Potency,[5],"inconclusive [inhibitor, partial curve, poor fit]"
same,Potency,[4],"inconclusive [inhibitor, partial curve, poor fit]"
